# Laboratory results published in article PMC12136788.
# This is one part of the list.
# T1: UNK ZnF1-3 (human, UniProt Q9C0B0 31-174)
# T1 sequence: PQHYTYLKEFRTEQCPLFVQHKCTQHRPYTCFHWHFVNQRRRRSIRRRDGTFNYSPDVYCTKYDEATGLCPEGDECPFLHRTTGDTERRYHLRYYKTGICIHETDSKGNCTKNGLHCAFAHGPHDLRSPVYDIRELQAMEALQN
# B1: chr1:60041781:60041782:+_ENSMUSG00000041040_ENSMUST00000036540|mus_hu|mus_mus_mus_hu_False|18_58 (ssRNA)
# RNA: GGGAGUUCUACAGUCCGACGAUCAAGUUUACAAUAGUAAAGUAAAUGCAGUAGUGGCAAAUUUUCUUUUAUUUUCCUUCCUAAAAGAAAAUCUUUAUAACCCAGUCCUAGUCUUGGCAGAGAAAGCAGCUAUAAAUUCUGACUCAACAGAGGAUUGAGCAUCA
# B2: 135711621_135711741_1686_CDS_ENSG00000082258_ENST00000295238|human|control|control (ssRNA)
# RNA: GGGAGUUCUACAGUCCGACGAUCGCUGCUGGUGUGGUGGCGGCUUGAAGGAUGCUCCUUGUGCUUCUCCUUAUGGUCUCUGCUAAUAUGUGGGCUUGAAUGUUUGCUCUUCCCACUGCCUUCAUCAGAAGAGCUGUGUCUUUCCAACAGAGGAUUGAGCAUCA
# B3: chr7:54823571:54823572:-_ENSG00000132432_ENST00000352861|hu_mus|hu_hu_hu_mus_False|28_108 (ssRNA)
# RNA: GGGAGUUCUACAGUCCGACGAUCUCCCAUUAUAGCAAAUCCUAUAGCUGUAGCCAUGGCAAUCUUCUGGAAUUCUUUUCUGUCGGGUUUGGUGCAUCUUUUAACCAGCCGAAUGGAGUCCUUUACAAACUGCCGGCUGGGCUCCAACAGAGGAUUGAGCAUCA
# B4: chr6:44221449:44221450:+_ENSG00000096384_ENST00000371646|hu_hu|motif|central (ssRNA)
# RNA: GGGAGUUCUACAGUCCGACGAUCAAUGGGGCUUGACACCCUUAGUUUACUGCCUUCAACACAAGGACAGGAGAGGGAAAAAAACACGGGACACCAGCAGGGGGAGCCAGGUGGGACAGGGGCACUCGAGGCUGCAGUGGGAGCCAACAGAGGAUUGAGCAUCA
# B5: chr2:65473824:65473825:+_ENSG00000138071_ENST00000260641|hu_hu|motif|central (ssRNA)
# RNA: GGGAGUUCUACAGUCCGACGAUCGUUUUUGGUUGGGUUCAUAGGAGGUUCUGUGAGUAAGAUUUUACAAUUUCUGGUAUCGGUAUUAAGUUUCUCUGGUCCAAAUGUGUAGUCCCACAGGUGUUUCAUGUCAUCCCAAUUUCGCAACAGAGGAUUGAGCAUCA
# B6: chr12:104381838:104381839:+_ENSG00000139372_ENST00000392872|hu_mus|FALSE|FALSE (ssRNA)
# RNA: GGGAGUUCUACAGUCCGACGAUCCAGUAAUCAACAGUAGUGACAAUAAUUUUUAAAUCAUUGACAAAUGAUUAGCUUUCCCUAGAAGAGAAGUUCUGUAUCAGUACAUCCCAUGUACACAGCACCAGUUUAAACAGGAUUAUCCAACAGAGGAUUGAGCAUCA
# B7: 90459061_90459354_3698_CDS_ENSG00000112159_ENST00000369393|human|control|control (ssRNA)
# RNA: GGGAGUUCUACAGUCCGACGAUCCCGAUUCCUGAAGGCUCUAGAAAGGACCUUUCUGCCUCCAUAAAGUCCUGGGGGAUUUUGGGUGGCAAAAAGCAUAAACCGAGGGUGUGCUUUAACAACUUCCUGUGUUUCUGUUACUAGCAACAGAGGAUUGAGCAUCA
# B8: chr6:114281168:114281169:-_ENSG00000196591_ENST00000368632|hu_hu|hu_hu_hu_mus_True|68_68 (ssRNA)
# RNA: GGGAGUUCUACAGUCCGACGAUCUUCCAUUUUUCGGUAUAAACCAUAAUUUAGCAGCAAGUUAUGAGUCAUGCGGAUUCUAUGAGGCUUCAUGGGAUGACCCUGGCCAUAAUAAUAAUUGCCAAUAUCACCAUCAUAGUAGUACAACAGAGGAUUGAGCAUCA
# B9: chr19:16212804:16212805:+_ENSG00000167460_ENST00000300933|hu_mus|hu_hu_hu_mus_False|58_78 (ssRNA)
# RNA: GGGAGUUCUACAGUCCGACGAUCAACAAUUCUGGAGUGAAGGAAAGAUGUAACAUGCAAUUAAUUAAAAGCUCAGUAUUACUAUAUAUGGGCAACAAUGAUCACCCCAGCAUUCUCGCUUGGAAUGCUUAAAGACAAUCUGUUCAACAGAGGAUUGAGCAUCA
# B10: chr13:48919227:48919228:+_ENSG00000139687_ENST00000267163|hu_hu|motif|central (ssRNA)
# RNA: GGGAGUUCUACAGUCCGACGAUCUUUGGUACUGGUAUCAAUUUCUUUUAGUAAGUUAAAGAAUUUAUGGACACUGAUUUCGGUGUUUUUCUGUAGCUCAGUAAAAGUGAACGACAUCUCAUCUAGGUCAACUGCUGCAAUAAACAACAGAGGAUUGAGCAUCA
# B11: chr8:9988343:9988344:+_ENSMUSG00000040396_ENSMUST00000048216|mus_mus|FALSE|FALSE (ssRNA)
# RNA: GGGAGUUCUACAGUCCGACGAUCUGUUUUUGUCAUGUCUUCGGGAGAAUGACUCUUGAUCACUUCCUUGAUAAAUUGUUCUAGUGCAGUGAAGUAGCCUUGGCACUGCCAUGUGUCGUUGUGCGUCCCAUCUGGGAAAAUGGCCAACAGAGGAUUGAGCAUCA
# B12: chr11:118639009:118639010:-_ENSG00000110367_ENST00000264018|hu_hu|motif|central (ssRNA)
# RNA: GGGAGUUCUACAGUCCGACGAUCUUCAAGUAAGGGAAUGAGGUAGGCACCGCUCUUGCCUGUUCCAUUUUUUGCUCGGGCGGAGAUAUCCCUACCAGAUAAAGCAAUGGGAAUGCUCUCCUCCUGAAUAGGAGAUGGCUUUUCCAACAGAGGAUUGAGCAUCA
# B13: chr1:160305110:160305111:-_ENSG00000122218_ENST00000241704|hu_mus|FALSE|FALSE (ssRNA)
# RNA: GGGAGUUCUACAGUCCGACGAUCUGAGGCGCUCAGAAUCCAAGGAUAUUCAUGAUGGAAAAACGUUGUACGGAUAUAAUCCAAGUGCCCGAGCAAUGUGAACAGGCAGCGCCGAAGUUUGUAAUUCCAAACCUUAAUCUUAUACAACAGAGGAUUGAGCAUCA
# B14: chr1:109605286:109605287:-_ENSG00000197780_ENST00000461096|hu_mus|hu_hu_hu_mus_True|1_28 (ssRNA)
# RNA: GGGAGUUCUACAGUCCGACGAUCAAGUUUCAGAGUAACAUUCAGUAACCUCUUUAAAUGCAAUUAUCCUUAUUAUAAGCUAAGCAGAAUAAUAAUUUAAUACCGUAAGUAAAUACAACACAAAGCCUGAACCGCGAAACUACACAACAGAGGAUUGAGCAUCA
# Biological target: T1, UNK ZnF1-3
# Assay: nsRBNS (natural sequence RNA bind-n-seq); RBNS binding buffer (assumed for nsRBNS): 25 mM Tris pH 7.5, 150 mM KCl, 3 mM MgCl2, 0.01% Triton X-100, 500 ug/ml BSA, 20 U/ml SUPERase-In, 4 C; UNK is unkempt and MSI1 is Musashi-1; names of the RNAs are library labels; protein concentration not given here; high values mean tight binding
row,Binder,binding signal
1,B1,1.06 enrichment R
2,B2,0.666 enrichment R
3,B3,0.841 enrichment R
4,B4,1.97 enrichment R
5,B5,0.6 enrichment R
6,B6,0.917 enrichment R
7,B7,0.889 enrichment R
8,B8,1.09 enrichment R
9,B9,1.09 enrichment R
10,B10,0.7 enrichment R
11,B11,0.822 enrichment R
12,B12,0.679 enrichment R
13,B13,1.19 enrichment R
14,B14,0.734 enrichment R
